The results in this text go back to PMC4336329 (PLoS ONE, 2015).

The structures appear in SMILES notation. Out of some 310,000 compounds screened, about 14,000 (4.5%) showed an effect of 50% or more. The effect is printed as a negative number. Some of the results follow.
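Also: peak tail current of the secondary pulse compared with the same well before compound.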

Sequence of human ether-à-go-go-related gene (hERG) potassium channel (Q12809 whole entry, looked up): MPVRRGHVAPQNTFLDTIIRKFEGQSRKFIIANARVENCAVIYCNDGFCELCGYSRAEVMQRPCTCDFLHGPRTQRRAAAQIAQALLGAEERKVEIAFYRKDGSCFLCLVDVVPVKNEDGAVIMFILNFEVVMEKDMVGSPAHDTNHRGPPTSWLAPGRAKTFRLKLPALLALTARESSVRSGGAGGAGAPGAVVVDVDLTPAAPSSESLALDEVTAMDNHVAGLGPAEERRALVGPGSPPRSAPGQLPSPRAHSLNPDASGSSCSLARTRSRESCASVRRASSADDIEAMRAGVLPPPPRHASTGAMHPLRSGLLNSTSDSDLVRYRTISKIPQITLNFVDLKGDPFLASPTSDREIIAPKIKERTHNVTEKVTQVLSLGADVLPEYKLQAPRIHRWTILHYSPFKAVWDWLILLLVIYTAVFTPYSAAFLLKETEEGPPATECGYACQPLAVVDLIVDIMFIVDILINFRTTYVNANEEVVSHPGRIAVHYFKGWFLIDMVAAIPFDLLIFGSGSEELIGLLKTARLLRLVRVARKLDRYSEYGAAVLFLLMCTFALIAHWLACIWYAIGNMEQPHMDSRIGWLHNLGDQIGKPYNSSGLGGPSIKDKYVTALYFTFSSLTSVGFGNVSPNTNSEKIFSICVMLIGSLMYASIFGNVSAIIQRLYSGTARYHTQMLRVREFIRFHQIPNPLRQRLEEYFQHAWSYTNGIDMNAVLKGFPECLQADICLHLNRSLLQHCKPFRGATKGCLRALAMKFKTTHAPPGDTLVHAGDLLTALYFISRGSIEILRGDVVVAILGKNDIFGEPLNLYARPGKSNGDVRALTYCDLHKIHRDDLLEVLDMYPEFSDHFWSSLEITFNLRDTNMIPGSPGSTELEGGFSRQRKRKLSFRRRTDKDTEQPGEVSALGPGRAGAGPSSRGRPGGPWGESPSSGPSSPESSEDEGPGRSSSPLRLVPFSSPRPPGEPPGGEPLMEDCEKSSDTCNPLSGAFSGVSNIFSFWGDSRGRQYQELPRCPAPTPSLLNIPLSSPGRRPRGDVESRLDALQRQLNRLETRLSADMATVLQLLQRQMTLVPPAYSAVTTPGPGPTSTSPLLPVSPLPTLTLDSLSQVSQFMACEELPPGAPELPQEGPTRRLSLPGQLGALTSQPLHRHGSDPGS

This experiment has as its target human ether-à-go-go-related gene (hERG) potassium channel (human, UniProt Q12809). The experiment in a line: primary screen, population patch clamp on CHO cells stably expressing hERG.
`Cc1ccc(CC2C(=O)N(c3cc(Cl)ccn3)C(=O)C2C)cc1` (stereo not drawn): the “hERG current change (%, negative = inhibition) at 10uM” value was -9.63%.

Turning to `Cc1ccc2ncccc2c1NC(=S)NC(=O)c1ccccc1`, the “hERG current change (%, negative = inhibition) at 10uM” value is listed as 11.3%. The value for `O=C(Nc1nccs1)c1ccc(S(=O)(=O)c2ccccc2)cc1` was 3.97%. With `C#CC[N+](C)(C)C(C#Cc1ccccc1)CC=C.[Br-]` (stereo not drawn) the figure was 3.61%; with `COc1cc(CN2CCN(S(=O)(=O)c3ccccc3)CC2)cc(OC)c1OC.O=C(O)C(=O)O`, -5.31%.

On to `Cc1cc(NC(=O)COC(=O)c2ccc(OC(F)(F)F)cc2)no1`, for which the “hERG current change (%, negative = inhibition) at 10uM” value is listed as -8.13%.

Regarding `CCn1nnc(NC(=O)C(c2ccccc2)c2ccccc2)n1`, the “hERG current change (%, negative = inhibition) at 10uM” value came out at 9.95%.

As for `O=C(CN1C2CCCC1CC(NC(=O)C1CCCCC1)C2)NCc1ccc(F)cc1` (stereo not drawn), the “hERG current change (%, negative = inhibition) at 10uM” value is recorded as -44.3%. The value for `COc1cc(NC(=O)c2ccco2)c(OC)cc1NC(=O)CCC(=O)Nc1cccc(C)c1C` was -9.36%; that for `Cc1ccc(P(=S)(c2ccc(C)o2)N2CCOCC2)o1` was -2.43%. The value for `COC(=O)COc1ccc(S(=O)(=O)NCc2ccc3c(c2)OCO3)cc1` was 6.25%; that for `CS(=O)(=O)N(CCc1ccccc1)CC(=O)Nc1ccc2c(c1)OCO2` was -0.238%; that for `COc1cccc(C(=O)N2C(C(=O)O)CSC2c2ccccc2Cl)c1` (stereo not drawn) was 8.96%. With `CC(C)CN1C(=O)NC(NS(=O)(=O)c2ccc(N)cc2)(C(F)(F)F)C1=O` (stereo not drawn) the figure was 12.9%; with `CCCCNC(=O)C(=O)N/N=C/c1ccc(C(=O)OC)cc1`, -20.1%; with `COCCCNC(=O)CN(c1cccc(Cl)c1)S(C)(=O)=O`, -5.06%. For the molecule `CC(C)N1CCN(Cc2ccc(-c3ccccc3Cl)o2)CC1CCO` (stereo not drawn), the “hERG current change (%, negative = inhibition) at 10uM” value was -54.8%. The value for `COc1ccc(-c2nnc(-c3cccnc3)o2)cc1OC` was -27.9%; that for `O=C(NCCN1CCCC1)c1ccc(Cn2c(=S)[nH]c3ccc(Br)cc3c2=O)cc1` was 5.77%. With `CCc1c(O)nc(SCC(=O)Nc2ccccc2)n(-c2ccccc2)c1=O` the figure was 10.5%.

Take `O=[N+]([O-])c1ccc(C2=Nc3cc(Cl)ccc3OC2)cc1`: the “hERG current change (%, negative = inhibition) at 10uM” value was 33.9%.

For the molecule `CS(=O)(=O)N(CC(=O)Nc1c(F)cccc1F)c1cccc([N+](=O)[O-])c1`, the “hERG current change (%, negative = inhibition) at 10uM” value came out at 0.947%.

With `O=C(CNS(=O)(=O)c1ccc2ccccc2c1)OCc1nnc(-c2ccccc2)o1`, the “hERG current change (%, negative = inhibition) at 10uM” value is given as 6.21%. The value for `CCC(CCCO)CCC[C@H](C)CCC1OCCO1` (stereo partly drawn) was -2.67%; that for `CCOc1ccc(NC(=S)/C(=C(\[O-])c2ccc(C)c([N+](=O)[O-])c2)[n+]2ccccc2)cc1` was -1.39%. With `CC(OC(=O)CCCOc1ccccc1)C(=O)Nc1ccc(Cl)cn1` (stereo not drawn) the figure was -31.6%; with `CN(CCc1cn[nH]c1)C(=O)CC1C(=O)NCCN1Cc1cccc(Oc2ccccc2)c1` (stereo not drawn), -0.123%. With `COC(=O)c1ccc(CNC(=O)COC(=O)C2CCC(C(C)(C)C)CC2)cc1` (stereo not drawn) the figure was 3.52%.

As for `N=C1C(c2ccccc2)=C(O)CN1c1ccc2c(c1)OCO2`, the “hERG current change (%, negative = inhibition) at 10uM” value is recorded as 9.72%. In the case of `O=C(NNC(=O)c1ccccc1O)c1ccc(S(=O)(=O)Nc2ccccc2F)cc1`, the “hERG current change (%, negative = inhibition) at 10uM” value is -4%. The value for `Cc1ccc(C(CNC(=O)Nc2ccc(Cl)cc2)N2CCN(C)CC2)cc1` (stereo not drawn) was -76.8%. With `COc1ccccc1NC(=O)CSc1nc(=O)n(CCN2CCOCC2)c2c1CCC2`, the “hERG current change (%, negative = inhibition) at 10uM” value is recorded as -12.2%. With `COc1ccc(CCNC(=O)C(=O)NCC2OCCN2S(=O)(=O)c2ccc(Cl)cc2)cc1` (stereo not drawn) the figure was 7.58%. The value for `COC(=O)c1ccc(NC(=O)CC(=O)Nc2ccc(C(=O)OC)cc2)cc1` was 14.1%; that for `Cc1ccc(C(=O)NNC(=O)c2cccc(Br)c2)cc1` was -3.61%. With `COC(=O)Cc1c(C(=O)OC)nnn1-c1ccc(OC(F)(F)F)cc1` the figure was 5.77%; with `CC(=O)NCC1CCCN(C(=O)c2oc3c(F)cccc3c2C)C1` (stereo not drawn), 21.2%.

In the case of `CCOC(=O)c1cc(NCc2cccs2)ccc1N1CCOCC1`, the “hERG current change (%, negative = inhibition) at 10uM” value is recorded as -3.79%.

Consider `CN(Cc1ccco1)C(=O)c1cc2c(s1)-c1ccc(Cl)cc1S(=O)(=O)C2`, for which the “hERG current change (%, negative = inhibition) at 10uM” value is -1.74%. The value for `COc1ccc(NS(=O)(=O)c2ccc(Oc3c(C#N)cccc3C#N)cc2)cc1` was -13.1%; that for `O=C(c1ccc(Cl)c(S(=O)(=O)N2CCCCCC2)c1)N1CCCC(C(F)(F)F)C1` (stereo not drawn) was -58.9%. With `COc1ccc(Oc2cnn(-c3ccccc3)c(=O)c2Br)cc1` the figure was 9.51%; with `Cc1c(NC(=O)COC(=O)CCC(=O)c2ccc(Cl)cc2)c(=O)n(-c2ccccc2)n1C`, 1.22%; with `CCN1CCN(C(=O)c2cc(COc3ccc(C(C)=O)cc3OC)on2)CC1`, 9.41%. The value for `C/C(N)=C(/C#N)C(=O)COC(=O)C(NS(=O)(=O)c1ccc(Cl)cc1)C(C)O` (stereo not drawn) was 23.1%; that for `O=C(NCCN1CCOCC1)c1ccccc1N1C(=O)[C@@H]2Cc3c([nH]c4ccccc34)C(c3ccccc3)N2C1=O` (stereo partly drawn) was -20.4%; that for `COC(=O)[C@H](Cc1ccccc1)NC(=O)[C@@H]1C[C@H]1[C@@H](NC(=O)OCc1ccccc1)c1ccccc1` was -34.1%. In the case of `COc1ccc(-c2cc(=O)c3cc(OC)ccc3[nH]2)cc1`, the “hERG current change (%, negative = inhibition) at 10uM” value is -12.4%. With `Cc1ccc2cc(CCNC(=O)c3ccc(S(=O)(=O)N4CCCCC4)cc3)c(=O)[nH]c2c1` the figure was 2.63%; with `CCCc1[nH][nH]c(=O)c1C(c1ccccc1)C(C#N)C#N` (stereo not drawn), -14.1%; with `CCc1nnc(NC(=O)Cn2nc(-c3ccc(OC)c(OC)c3)ccc2=O)s1`, 8.01%. Regarding `Cc1ccc2oc(-c3cccc(NC(=O)c4ccc(Br)o4)c3C)nc2c1`, the “hERG current change (%, negative = inhibition) at 10uM” value is -4.19%. The value for `CN(C)c1ccc(/C=N/N=C2/NC(=O)/C(=C/c3ccc([N+](=O)[O-])cc3)S2)cc1` was 4.42%. With `COC(=O)c1c(C(=O)OC)c2ccncn2c1Cl` the figure was 7.09%; with `Cc1ccc(S(=O)(=O)N(C)c2ccc(C(=O)NCc3cccnc3)cc2)cc1`, -34.2%; with `CSCCC(N=Cc1c(O)n(-c2ccc(Cl)cc2)c(=O)[nH]c1=O)C(=O)OC(C)(C)C` (stereo not drawn), -17.8%. With `CSCC[C@H](NC(=O)OC(C)(C)C)C(=O)N1CCC(C(=O)N[C@@H](C)C(=O)O)CC1` the figure was -1.05%; with `N#Cc1cccc(NC(=O)CNC(=O)Cc2ccccc2)c1`, 15.9%; with `CCN(CC(=O)Nc1cccc(OC)c1)CC(=O)Nc1ccccc1C`, 3.9%. In the case of `CC(Oc1ccc(Cl)cc1)C(=O)Nc1ccc(S(=O)(=O)Nc2nccs2)cc1` (stereo not drawn), the “hERG current change (%, negative = inhibition) at 10uM” value is reported as -3.67%.

Take `CN1CCN(C(c2ccccn2)c2cc(Cl)c3cccnc3c2O)CC1` (stereo not drawn): the “hERG current change (%, negative = inhibition) at 10uM” value is recorded as -23.5%. As for `CN(C)c1cccc(Oc2nc3c(c(=O)n(C)c(=O)n3C)n2C)c1`, the “hERG current change (%, negative = inhibition) at 10uM” value was 3.59%. With `Clc1cccc(-c2cc3nc4c(c(NCc5ccco5)n3n2)CCCC4)c1` the figure was 7.34%; with `CCN(CC)C(=O)C(C)N(C#N)c1nc(Cl)nc(N(C)C)n1` (stereo not drawn), 13.8%. Take `O=C(NCc1nnnn1-c1ccc(F)c(F)c1)c1cc2ccccc2o1`: the “hERG current change (%, negative = inhibition) at 10uM” value was -25.6%. Regarding `Cc1oc(-c2ccccc2Cl)nc1CN1CCCCC1CO` (stereo not drawn), the “hERG current change (%, negative = inhibition) at 10uM” value is given as -20.5%.

Take `CC(=O)c1ccc(NC(=O)CN2C(=O)/C(=C/C=C/c3ccccc3)SC2=S)cc1`: the “hERG current change (%, negative = inhibition) at 10uM” value is listed as -0.256%.

In the case of `O=C(O)CCn1cc(-c2ccc(Cl)cc2)nc1-c1ccncc1`, the “hERG current change (%, negative = inhibition) at 10uM” value came to 11.5%. The value for `C=CCOC(=O)N1CCN(c2cccc(C(F)(F)F)c2)CC1` was -23.3%. With `O=C1CCCN1c1ccc(S(=O)(=O)Oc2ccc(Cl)cc2)cc1[N+](=O)[O-]` the figure was -38.7%; with `O=C(c1ccccc1)[C@@H]1[C@@H]2C(=O)N(c3ccc(F)cc3)C(=O)[C@@H]2C2CCCN21` (stereo partly drawn), 5.24%; with `CCOC(=O)N1CCN(C(C)C(=O)c2c[nH]c3ccccc23)CC1` (stereo not drawn), -7.38%. The value for `CCc1ccc2[nH]c(=O)c(CN(CCN3CCCC3)C(=O)NC3CCCCC3)cc2c1` was -40.9%; that for `Cc1cc(C)n(-c2nc3c(c(=O)[nH]c(=O)n3C)n2Cc2ccccc2)n1` was 11.7%. In the case of `O=C(NN1CC(=O)N(c2cc(Cl)cc(Cl)c2)CC1=O)c1sccc1Cl`, the “hERG current change (%, negative = inhibition) at 10uM” value is -0.682%. With `CC(C)=NOc1nc(NC(=O)NS(=O)(=O)c2ccccc2Cl)nc(N(C)C)n1` the figure was 26.5%; with `CCN(C(=O)CN1C(=O)NC2(CCCc3ccccc32)C1=O)c1ccc(F)cc1` (stereo not drawn), 7.72%; with `Cc1ccc(CCC(=O)Nc2cc(Cl)ccc2Cl)o1`, 5.91%. As for `CCOc1ccccc1NC(=O)COC(=O)CN(C)S(=O)(=O)c1ccc(C)cc1`, the “hERG current change (%, negative = inhibition) at 10uM” value is recorded as -13.5%. Consider `O=C(Nc1ccccc1N1CCCC1)c1cc(Cl)ccc1Cl`, for which the “hERG current change (%, negative = inhibition) at 10uM” value is reported as -2.72%.

For the molecule `Cc1ccc(S(=O)(=O)CCC(=O)OCC(=O)NC(C)c2ccc(F)cc2)cc1` (stereo not drawn), the “hERG current change (%, negative = inhibition) at 10uM” value is 4.41%.

For the molecule `CCOC(=O)C1CCCN(C(=S)Nc2ccc(F)cc2)C1` (stereo not drawn), the “hERG current change (%, negative = inhibition) at 10uM” value turned out to be 11.3%. In the case of `COc1cccc(C(=O)/C=C/Nc2ccc(S(=O)(=O)Nc3cc(OC)nc(OC)n3)cc2)c1`, the “hERG current change (%, negative = inhibition) at 10uM” value is 5.92%. With `CC(=O)c1cccc(NC(=O)C2CC(c3ccc(F)cc3)=NO2)c1` (stereo not drawn) the figure was 11.6%.
